{"source": "PubChem BioAssay AID1460", "about": "(National Center for Advancing Translational Sciences (NCATS), 2008)", "note": "Where “and” joins values, the source holds several entries; their conditions need not be identical. Equal entries are not always repeated. Out of some 270,000 compounds screened, about 5,800 (2.1%) were called active. Inconclusive means that the source gave no clear call. Such entries were picked first, then a sample of the others. Calls follow the shape of the dose curve; as a rule, active = well fitted inhibition curve with a large enough effect; inconclusive = small, poorly fitted or top-dose-only effect; inactive = flat fitted curve, though single readings scatter. Potencies of inconclusive entries are doubtful fits and often do not repeat. % is scaled to controls: 0 for no effect and ±100 for the full control effect; potency is read from the fitted curve at half-maximal effect; tags tell the direction and shape of the fitted curve.", "data": [{"target": "Microtubule-associated protein tau (Homo sapiens) (UniProt P10636)", "sequence (P10636 whole entry, looked up, the tested form may be a part)": "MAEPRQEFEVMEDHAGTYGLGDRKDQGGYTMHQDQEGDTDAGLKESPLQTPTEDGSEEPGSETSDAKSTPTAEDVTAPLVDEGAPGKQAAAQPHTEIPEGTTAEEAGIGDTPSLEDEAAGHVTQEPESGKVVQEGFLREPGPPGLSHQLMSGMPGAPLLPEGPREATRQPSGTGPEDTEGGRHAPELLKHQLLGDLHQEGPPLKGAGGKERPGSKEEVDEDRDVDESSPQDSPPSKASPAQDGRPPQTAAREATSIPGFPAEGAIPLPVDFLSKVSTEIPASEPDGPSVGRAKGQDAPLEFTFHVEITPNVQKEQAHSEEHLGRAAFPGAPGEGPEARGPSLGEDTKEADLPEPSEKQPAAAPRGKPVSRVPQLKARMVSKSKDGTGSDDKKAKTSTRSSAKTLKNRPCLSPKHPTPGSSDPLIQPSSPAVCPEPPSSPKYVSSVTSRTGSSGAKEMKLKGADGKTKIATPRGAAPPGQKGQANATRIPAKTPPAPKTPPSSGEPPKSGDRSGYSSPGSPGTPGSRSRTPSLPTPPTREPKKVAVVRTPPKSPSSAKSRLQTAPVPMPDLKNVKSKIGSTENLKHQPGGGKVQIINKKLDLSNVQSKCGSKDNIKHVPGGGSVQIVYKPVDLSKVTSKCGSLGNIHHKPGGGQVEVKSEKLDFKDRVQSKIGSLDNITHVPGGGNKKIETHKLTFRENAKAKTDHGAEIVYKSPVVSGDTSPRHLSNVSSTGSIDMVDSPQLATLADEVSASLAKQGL", "test": "qHTS for Inhibitors of Tau Fibril Formation, Thioflavin T Binding; also: nearly all actives have a fitted effect of over 55% in size", "details": "recombinant tau K18 P301L (four-repeat tau fragment), heparin-induced fibrillization, ThT fluorescence; series mostly up to 57.4 µM", "summary_of_the_method": "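Tau K18 P301L fragment (15 uM unlabeled plus 0.24 uM Alexa 594-labeled) in 100 mM sodium acetate pH 7 with compound, fibrillization induced by 20 uM heparin for 6 hr at 37 C. Thioflavin T (30 uM) added, fluorescence read after 1 hr (ex 450, em 510 nm).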", "values": [{"smiles": "COc1cc(NC(=O)c2cn(C3CCCC3)c(=O)c3c2c2ccccc2n3C)cc(OC)c1OC", "Potency": "inactive"}, {"smiles": "O=C(C(c1ccccc1)c1ccccc1)N1CCN(Cc2ccco2)CC1", "Potency": "inactive"}, {"smiles": "Cn1cnc2c(=O)oc3ccc(S(=O)(=O)Nc4ccc(F)cc4)cc3c21", "Potency": "inconclusive: 7.94 µM [activator, single point]"}, {"smiles": "COc1cc(NC(=O)c2ccco2)c(OC)cc1NC(=O)c1cc(OC)c(OC)c(OC)c1", "Potency": "inconclusive: 39.8 µM [inhibitor, partial curve, poor fit]"}, {"smiles": "O=C(Cn1cnc2ccccc21)OCC(=O)N1CCc2ccccc2C1", "Potency": "inactive"}, {"smiles": "Cc1ccc(C(=O)N(Cc2cccnc2)Cc2cc3cc(C)ccc3n3nnnc23)cc1", "Potency": "inactive"}, {"smiles": "CCOc1ccccc1NC(=O)Cc1noc2ccc(C)cc12", "Potency": "inconclusive: 20 µM [inhibitor, single point]"}, {"smiles": "OC(c1ccccn1)c1c[nH]c2ccccc12", "note": "(stereo unspecified)", "Potency": "inconclusive: 31.6 µM [inhibitor, partial curve, poor fit]"}, {"smiles": "Fc1cccc(Cl)c1CSc1ccc(-c2ccco2)nn1", "Potency": "inconclusive: 12.6 µM [inhibitor, partial curve]"}, {"smiles": "COc1ccc(NC(=O)c2c(NC(=O)c3ccc(Br)cc3)sc3c2CCCC3)cc1", "Potency": "inconclusive: 15.8 µM [inhibitor, single point]"}, {"smiles": "COc1ccc(/C=N/Nc2nc3ccccc3[nH]2)cc1OC", "Potency": "active: 12.6 µM"}, {"smiles": "CC(C)(C)c1ccc(C(=O)Nc2ccc(N3CCOCC3)cc2)cc1", "Potency": "active: 4.47 µM"}, {"smiles": "COc1ccc(S(=O)(=O)N2CCOCC2)cc1NC(=O)c1cc2c(s1)CCCC2", "Potency": "inactive"}, {"smiles": "O=c1sc(N2CCN(c3ccc(F)cc3)CC2)nc2ccsc12", "Potency": "inconclusive: 3.55 µM [inhibitor, full curve]"}, {"smiles": "Cc1cccc(/C(N)=N/OC(=O)Cc2ccccc2)c1", "Potency": "inactive"}, {"smiles": "CN(C)Cc1c(O)ccc2c1O/C(=C\\C=C\\c1ccccc1)C2=O", "Potency": "inconclusive: 22.4 µM [inhibitor, partial curve, poor fit]"}, {"smiles": "COC(=O)C1=C(C)N(Cc2ccccc2)C2=C(C(C)=O)C[C@@](O)(C(=O)OC)C(=O)N2C1c1ccccc1", "note": "(stereo partly specified)", "activity, negative = inhibition": "inactive: -6.83% [at 11.5 µM] and inactive: -1.01% [at 11.5 µM]"}, {"smiles": "Cc1nnc(NC(=O)CSc2ccc(-c3ccco3)nn2)s1", "Potency": "inconclusive: 14.1 µM [inhibitor, partial curve]"}, {"smiles": "Cc1cc(Cl)ccc1NC(=S)NCCC(c1ccccc1)c1ccccc1", "Potency": "inactive"}, {"smiles": "COc1ccc(-c2nnc(SCc3cccc(Cl)c3)o2)cc1", "Potency": "inconclusive: 12.6 µM [inhibitor, partial curve]"}, {"smiles": "N#Cc1ccc(NCCc2ccccn2)c([N+](=O)[O-])c1", "Potency": "inconclusive: 25.1 µM [inhibitor, single point]"}, {"smiles": "COc1cc(OC)c2cc(C(=O)N/N=C/c3cccc(OC)c3O)[nH]c2c1", "Potency": "active: 5.01 µM"}, {"smiles": "Cc1ccc(C(=O)/C=C/c2cn(CC(O)CN3CCOCC3)c3ccccc23)cc1", "note": "(stereo unspecified)", "Potency": "inconclusive: 12.6 µM [inhibitor, partial curve]"}, {"smiles": "Cc1ccc(CN2CCNC(=O)C2CC(=O)NC2CCCCCC2)o1", "note": "(stereo unspecified)", "Potency": "inactive"}, {"smiles": "Cc1ccc2nc(SCC(=O)c3ccc(Cl)s3)[nH]c2c1", "Potency": "inconclusive: 15.8 µM [inhibitor, partial curve]"}, {"smiles": "Cc1cc(C(=O)CSc2n[nH]c(-c3ccccc3F)n2)c(C)n1Cc1cccs1", "Potency": "inconclusive: 35.5 µM [inhibitor, partial curve]"}, {"smiles": "COc1ccc2[nH]c(=O)c(CN(Cc3nnnn3Cc3ccco3)C3CCCCC3)cc2c1", "Potency": "inconclusive: 28.2 µM [inhibitor, single point]"}, {"smiles": "O=C(CCSc1ccccc1Cl)Nc1cccc([N+](=O)[O-])c1", "Potency": "inconclusive: 25.1 µM [inhibitor, single point]"}, {"smiles": "Fc1ccc(/C=N/NC2=Nc3cccc4cccc2c34)cc1", "Potency": "active: 2.24 µM"}, {"smiles": "O=C(CSc1nc2ccccc2c(=O)n1-c1ccccc1)N1CCc2ccccc2C1", "Potency": "inconclusive: 28.2 µM [inhibitor, partial curve]"}, {"smiles": "CC1(C)C(=O)N(CC(=O)Nc2ccc(Br)cc2F)c2ccccc21", "Potency": "inactive"}, {"smiles": "COc1ccc2nc(N(Cc3cccnc3)C(=O)C3CCCCC3)sc2c1", "Potency": "inconclusive: 28.2 µM [inhibitor, single point]"}, {"smiles": "COc1cccc(C2C(C(=O)Nc3ccc(C)cc3C)=C(C)Nc3nc4ccccc4n32)c1OC", "note": "(stereo unspecified)", "Potency": "inconclusive: 15.8 µM [inhibitor, partial curve]"}, {"smiles": "N#C/C(=C(/O)COC(=O)c1ccc(C#N)cc1)c1nc2ccccc2s1", "Potency": "inconclusive: 15.8 µM [inhibitor, partial curve]"}, {"smiles": "CC(C)COc1ccc(C(=O)NCc2ccco2)cc1", "Potency": "inconclusive: 20 µM [inhibitor, partial curve, poor fit]"}, {"smiles": "O=C(Nc1ccc2c(c1)OCO2)C1(S(=O)(=O)c2ccc(Cl)cc2)CC1", "Potency": "inconclusive: 15.8 µM [inhibitor, partial curve, poor fit]"}, {"smiles": "CCCCn1nc2cc(C(=O)NCCc3ccc(C)cc3)ccc2c1OCC", "Potency": "inconclusive: 22.4 µM [inhibitor, partial curve]"}, {"smiles": "COc1ccc(N2CCN(CCCNC(=O)Cn3c(-c4cccs4)cc4ccccc43)CC2)cc1", "Potency": "inconclusive: 7.94 µM [inhibitor, partial curve]"}, {"smiles": "COc1ccc(N=C2O/C(=C/c3sc(=S)n(CC4CCCO4)c3O)N=C2C#N)cc1", "note": "(stereo unspecified)", "Potency": "active: 10 µM"}, {"smiles": "O=C(CSC1=NCCN1)NC1CCCCCC1", "Potency": "inconclusive: 8.91 µM [inhibitor, partial curve]"}, {"smiles": "O=C1OC(c2cccs2)=N/C1=C\\c1ccc(-c2ccccc2Cl)o1", "Potency": "inconclusive: 15.8 µM [inhibitor, partial curve]"}, {"smiles": "CC(C)C1Cc2c(C#N)c(N)sc(=S)c2CO1", "note": "(stereo unspecified)", "Potency": "active: 20 µM"}, {"smiles": "Cc1c(NC(=O)Nc2ccccc2C(F)(F)F)sc2nc3n(c(=O)c12)CCC(C)CC3", "note": "(stereo unspecified)", "Potency": "inactive"}, {"smiles": "Cc1cccc(OCC(=O)NNC(=O)c2cc3ccccc3oc2=O)c1", "Potency": "inconclusive: 14.1 µM [inhibitor, partial curve]"}, {"smiles": "CCOc1ccccc1NC(=O)c1cc(SC)ccc1Cl", "Potency": "inconclusive: 10 µM [inhibitor, partial curve]"}, {"smiles": "CCOC(=O)c1c(NC(=O)C2=C(C)NC(=S)NC2c2ccc(F)cc2)sc(C)c1C", "note": "(stereo unspecified)", "Potency": "inactive"}, {"smiles": "O=[N+]([O-])c1ccc(-c2ccc(/C=N/Nc3nc(N4CCCCC4)nc(N4CCCCC4)n3)o2)cc1", "Potency": "inconclusive: 10 µM [inhibitor, partial curve]"}, {"smiles": "Cc1ccc2c(c1)C1CN(C)CCC1N2C(=O)COc1ccccc1F", "note": "(stereo unspecified)", "Potency": "inconclusive: 2.82 µM [activator, partial curve, poor fit]"}, {"smiles": "C/C(=N\\NC(=O)c1ccccc1-n1cccc1)C1CC1", "Potency": "inactive"}, {"smiles": "Cc1ccc2[nH]c3c(N4CCN(Cc5ccccc5)CC4)ncnc3c2c1", "Potency": "inconclusive: 17.8 µM [inhibitor, partial curve]"}, {"smiles": "O=C1CC(c2ccccc2)c2ccccc21", "note": "(stereo unspecified)", "Potency": "inactive"}, {"smiles": "Cc1sc(-c2cccnc2)nc1OC(=O)C1CC1", "Potency": "inconclusive: 31.6 µM [inhibitor, single point]"}, {"smiles": "COC(=O)c1cccc(-n2[nH]nnc2=S)c1", "Potency": "inconclusive: 35.5 µM [inhibitor, single point]"}, {"smiles": "CCN1C(=O)c2cccc3c(NC(=O)c4ccc(S(=O)(=O)N(C)C)cc4)ccc1c23", "Potency": "inconclusive: 14.1 µM [inhibitor, partial curve]"}, {"smiles": "CCOC(=O)c1c(NC(=O)CSc2nnc(-c3ccco3)o2)sc(C(C)=O)c1C", "Potency": "inactive"}, {"smiles": "CC1CN(C(=S)NC(=O)c2cccc([N+](=O)[O-])c2)CC(C)O1", "note": "(stereo unspecified)", "Potency": "inactive"}, {"smiles": "COc1ccc(C(=O)N2CC3(CC(c4cccc(NC(=O)CC(c5ccccc5)c5ccccc5)c4)=NO3)C[C@H]2C(N)=O)cc1", "note": "(stereo partly specified)", "Potency": "inconclusive: 0.0794 µM [inhibitor, full curve, poor fit]"}, {"smiles": "CCCCN(CC)CCCNC(=O)Nc1sc2nc3n(c(=O)c2c1C)CCC(C)CC3", "note": "(stereo unspecified)", "Potency": "inactive"}, {"smiles": "Cc1cc(C)n2c(SCC(=O)Nc3ccc(F)cc3)nnc2n1", "Potency": "inactive"}, {"smiles": "Cc1cc(C(=O)CN2C(=O)c3cccc(N)c3C2=O)c(C)n1Cc1cccs1", "Potency": "inactive"}, {"smiles": "Cc1ccc(C)c(C(C)NC(=O)CC#N)c1", "note": "(stereo unspecified)", "Potency": "inactive"}, {"smiles": "O=C(CCl)Nc1cccc(Oc2ccccc2)c1", "Potency": "inactive"}, {"smiles": "O=C(c1ccco1)N1CCN(C(=O)C2CCN(S(=O)(=O)c3cccs3)CC2)CC1", "Potency": "inconclusive: 39.8 µM [inhibitor, partial curve]"}, {"smiles": "CC(C)(C)C(=O)N1CCN(c2ccc([N+](=O)[O-])c(NCC3CCCO3)c2)CC1", "note": "(stereo unspecified)", "Potency": "inconclusive: 25.1 µM [inhibitor, partial curve]"}, {"smiles": "CC[N+](CC)(CC)CCOc1ccc(/C=C/c2ccccc2)cc1", "Potency": "inconclusive: 20 µM [inhibitor, single point]"}, {"smiles": "COc1ccc(-n2cc(-c3ccccc3)c3c(N4CCOCC4)ncnc32)cc1", "Potency": "inconclusive: 28.2 µM [inhibitor, single point]"}, {"smiles": "Cc1cc(-c2csc(N)n2)c(C)n1C", "Potency": "active: 31.6 µM"}, {"smiles": "NC(=O)CC(NC(=O)c1ccccc1)c1ccc(NC2CCC2)c([N+](=O)[O-])c1", "note": "(stereo unspecified)", "Potency": "inconclusive: 17.8 µM [inhibitor, partial curve]"}, {"smiles": "CCOc1cc(/C=C2\\C(=O)N(c3nc(-c4ccc(Br)cc4)cs3)N=C2c2ccccc2)ccc1O", "Potency": "active: 11.2 µM"}, {"smiles": "CCOC(=O)c1cnc2ccc(OCC)cc2c1NCCc1ccc(OC)c(OC)c1", "Potency": "inconclusive: 17.8 µM [inhibitor, single point]"}, {"smiles": "CCOC(=O)Cc1nnc(NC(=O)C(CC)Sc2nncn2C)s1", "note": "(stereo unspecified)", "Potency": "inactive"}]}]}
